According to PubChem BioAssay AID1963862 (Molecular Pharmacology Branch, DTP, NCI, 2024):
Certain results were filed several times, with different values. The other results are left out here. An entry can have further records. Results that share an entry are repeated measurements across runs, samples, wells, individuals or studies. Signs of the kind (2×) say how often a value occurs here. A date in brackets names the month of the test.

Test system: KRAS patient-derived spheroids with HUVEC/MSC, viability
Test: Anticancer human tumor 941728-121-R-J1-PDC patient-derived lung adenocarcinoma cell line growth inhibition [KRAS2]
Conditions: for viability, T/C: stronger effect = lower value; for IC50: compound alone
From the text: Multicellular complex tumor spheroid response to RAS pathway inhibitors in combination with a targeted agents in patient-derived cell lines with oncogenic KRAS variants from multiple cancer types
A high-throughput screen of multi-cell type tumor spheroids was designed to identify active combinations of targeted small molecules and KRAS pathway inhibitors. Complex spheroids include a stromal component modeled by human endothelial cells (HUVEC) and fibroblasts modeled by human mesenchymal stem cells (MSCs). The concentration ranges selected for each drug and investigational agent were based upon clinically achievable concentrations if the clinical Cmax of the agent was known.
Compounds. The drugs and investigational agents: BI-3406 (NSC825286), BAY-293 (NSC824723), batoprotafib (TNO155; NSC825523), sotorasib (AMG 510; NSC818433), MRTX1257 (NSC819558), elimusertib (BAY 1895344; NSC800525), molibresib (GSK525762; NSC774829), temuterkib (LY3214996; NSC803410), venetoclax (NSC766270), alisertib (NSC759677), olaparib (NSC753686), talazoparib (NSC767125), erdafitinib (NSC781556), ipatasertib (NSC767898), cabozantinib (NSC761068), nintedanib (NSC756659), abemaciclib (NSC768073), docetaxel (NSC628503), trametinib (NSC758246), and sapanisertib (NSC764658) were obtained from the National Cancer Institute (NCI) Developmental Therapeutics Program Chemical Repository. The FDA-approved anticancer drug set is available from the Developmental Therapeutics Program. […] The stock solutions were prepared in dimethyl sulfoxide (DMSO, Sigma-Aldrich, St. Louis, MO, cat. D2650) at 800-fold the tested concentration and stored at -70 degrees C prior to their use. All drugs and investigational agents were tested over a range starting from a high concentration at or near the clinical Cmax and decreasing in half-log increments. If the clinical Cmax for an agent had not been determined, the highest concentration tested was 10 microM.
Cell Culture. All cells were maintained in an incubator at 37 degrees C and 5% CO2 with 95% humidity. The PDC lines were cultured according to standard operating procedures established by the NCI PDMR (https://pdmr.cancer.gov/sops/default.htm). Briefly, all PDCs were thawed and cultured in Matrigel-coated flasks prepared with a working solution of 1X Ham's F-12 nutrient mix, without supplementation (Invitrogen, Waltham, MA, cat. 11765054), 100 U/mL penicillin-streptomycin (Invitrogen, cat. 15140122), and 2.5% Matrigel (Corning Inc., Corning, NY, cat. 354248) for the first three passages. All PDCs were cultured in complete DMEM/F-12 media containing advanced DMEM/F-12 (Invitrogen, cat. 12634028), 4.9% defined fetal bovine serum, heat inactivated (HyClone Laboratories Inc., Logan, UT, cat. SH30070.03HI), 389 ng/mL hydrocortisone (Sigma-Aldrich, cat. H4001), 9.7 ng/mL human EGF recombinant protein (Invitrogen, cat. PHG0313), 23.4 microg/mL adenine (Sigma-Aldrich, cat. A2786), 97.3 U/mL penicillin-streptomycin (Invitrogen, cat. 15140122), 1.9 mM L-glutamine (Invitrogen, cat. 25030081), and 9.7 microM Y-27632 dihydrochloride (Tocris Bioscience, Bristol, United Kingdom, cat. 1254). The PDCs were cultured in complete DMEM/F12 media without 9.7 microM Y-27632 dihydrochloride for at least two passages prior to the screen. The established cell line HOP-62 was cultured in RPMI 1640 medium, HEPES (Invitrogen, cat. 22400105) with 10% defined fetal bovine serum (HyClone Laboratories Inc., cat. SH30070.03) and 2 mM L-glutamine (Invitrogen, cat. 25030081). The pooled donor HUVEC were cultured in endothelial cell growth medium 2 (PromoCell, Heidelberg, Germany, cat. C-22011) and the hMSC were cultured in mesenchymal stem cell growth medium 2 (PromoCell, cat. C-28009). For all experiments, HUVEC and hMSC were used at passages </=5, while the malignant cell lines were used at passages </=15. […]
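Note: spheroids exposed to agents for seven days before readout.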

Compound	viability, T/C (compound alone 3.16 µM)	viability, T/C (compound alone 0.0316 µM)	viability, T/C (compound alone 1 µM)	viability, T/C (compound alone 0.1 µM)	IC50	viability, T/C (compound alone 0.316 µM)	other results
CC(C)NCC(C(=O)N1CCN(c2ncnc3c2C(C)CC3O)CC1)c1ccc(Cl)cc1 (configuration not stated)	32.6, 43.4, 42.3, 17.5, 36.1%	–	–	–	–	–	–
O=C(c1cc(Cc2n[nH]c(=O)c3ccccc23)ccc1F)N1CCN(C(=O)C2CC2)CC1	81.1, 77.2, 94.3, 103, 96.9%	85.8, 82.2, 97.8, 96, 113%	89.3, 75.8, 88.5, 101, 98.2%	–	–	–	–
COc1cc2nccc(Oc3ccc(NC(=O)C4(C(=O)Nc5ccc(F)cc5)CC4)cc3)c2cc1OC	37, 35.4, 40.1, 103, 46.5%	–	64, 68.1, 86.3, 47.7, 76.5%	88.6, 86.1, 78.3, 106, 93.2%	–	–	viability, T/C (compound alone 10 µM): 74.4, 71, 71.8, 122%
CC(C)n1nc(-c2ccc3oc(N)nc3c2)c2c(N)ncnc21	–	28.3, 52.6, 62.7, 53.1, 19.8%	–	28.2, 45.2, 58.1, 51.3, 14.2%	1.08 nM, 43.2 nM, > 100 nM, 1.7 nM	–	viability, T/C (compound alone 0.001 µM): 51.4, 87.2, 78.2, 80.5, 68.8%; viability, T/C (compound alone 0.00316 µM): 30.9, 61.2, 54.3, 70.4, 28.2%; viability, T/C (compound alone 0.01 µM): 30.9, 62.3, 53.9, 55.5, 26.6%
CC1(C)CCC(CN2CCN(c3ccc(C(=O)NS(=O)(=O)c4ccc(NCC5CCOCC5)c([N+](=O)[O-])c4)c(Oc4cnc5[nH]ccc5c4)c3)CC2)=C(c2ccc(Cl)cc2)C1	–	105, 96.8, 68.1, 76.1, 83.7%	–	84.1, 119, 71.8, 76.1, 84.4%	–	71, 105, 69.8, 61.5, 74.3%	–
Cn1nccc1Nc1nccc(-c2cc3c(s2)C(C)(C)N(CCN2CCOCC2)C3=O)n1	–	–	–	60.9, 67.3, 86.3, 92, 84%	240 nM, 244 nM, > 10 µM	–	–
COc1cc(OC)cc(N(CCNC(C)C)c2ccc3ncc(-c4cnn(C)c4)nc3c2)c1	65.9, 79.1, 92.6, 40.1, 69.8%	93.8, 91.3, 121, 115, 107%	76.5, 88.2, 107, 41.4, 93.4%	–	4.59, 6.16, 9.32, 1.27, 8.18 µM	–	viability, T/C (compound alone 10 µM): 23.1, 29.5, 46.5, 2.34, 45.3%
CC1OCC2(CCN(c3cnc(Sc4ccnc(N)c4Cl)c(N)n3)CC2)C1N (configuration not stated)	–	–	99.6, 90.2, 30.2 (2×), 33.2, 39.9, 24.1, 32.3, 32.4, 34.1, 31.2, 48.8, 37.8 (2×), 47.5, 30.3, 34.8, 31.5, 42.4%	–	–	–	viability, T/C (compound alone 10 µM): 36.4, 65.7, 30.9, 27.6, 24.3, 19.4, 20.9, 14.1, 24.4, 20.4, 20.7, 38.2, 35.5, 41.7, 25.5, 23.4, 29.4, 24.2, 31.8, 39.7%; IC50 (run of 07/12/2021): 1.73 µM, < 100 nM, 137 nM, 232 nM; IC50 (run of 07/26/2021): 101 nM, < 100 nM, 121 nM, 103 nM
CC(=O)OC12COC1CC(O)C1(C)C(=O)C(O)C3=C(C)C(OC(=O)C(O)C(NC(=O)OC(C)(C)C)c4ccccc4)CC(O)(C(OC(=O)c4ccccc4)C21)C3(C)C (configuration not stated)	–	–	–	–	< 10 nM and > 3.16 µM	–	–
CC1COCCN1c1cc(-c2ccnn2C)c2ccnc(-c3ccn[nH]3)c2n1 (configuration not stated)	–	60.4, 54.8, 66, 57.5, 40.7%	–	–	91.6, 51.6, 83.3, 169, 22.4 nM	–	viability, T/C (compound alone 0.01 µM): 85.7, 96.9, 99.1, 85.4, 70.9%
C=CC(=O)N1CCN(c2nc(OCC3CCCN3C)nc3c2CCN(c2cccc4cccc(C)c24)C3)CC1CC#N (configuration not stated)	48.2, 0.56, 1.79, 0.6, 0.36, 0.24, 0.31, 0.11, 0.12, 0.13, 0.25, 0.75, 2.2, 4.32, 2.74, 1.72, 5.09%	39.5, 26, 34.6, 32.3, 35, 31.1, 16.5, 44.1, 25.8, 19.3, 31.4, 24.9, 28.8, 32, 23.9, 32.1, 36.2%	–	–	–	32.8, 23, 31.7, 32.5, 35.2, 29.4, 13.3, 37.9, 23.6, 18.5, 30.6, 20.6, 65.4, 25.4, 23.3, 26.6, 32.7%	–
CCNC(=O)CC1N=C(c2ccc(Cl)cc2)c2cc(OC)ccc2-n2c(C)nnc21 (configuration not stated)	50.6, 46.4, 47.6, 20.6, 44.8%	–	66.5, 56.7, 57.9, 25.5, 44.5%	98.6, 84.2, 78.1, 71.3, 76.1%	3.32 µM, 2.6 µM, 2 µM, 323 nM, 698 nM	–	viability, T/C (compound alone 10 µM): 41, 45.9, 39, 17.7, 40%
COC(=O)c1ccc2c(C(=Nc3ccc(N(C)C(=O)CN4CCN(C)CC4)cc3)c3ccccc3)c(O)[nH]c2c1	–	79.2, 82.9, 106, 80.2, 83%	–	–	–	69.5, 50.1, 94.6, 65.4, 60%	–
Cn1ncnc1[C@H]1c2n[nH]c(=O)c3cc(F)cc(c23)N[C@@H]1c1ccc(F)cc1	–	72.2, 89.8, 78.2, 98.8, 81.5%	–	80.4, 78.8, 69.2, 96.8, 85.1%	–	–	–
CC(=O)Nc1cccc(-n2c(=O)n(C3CC3)c(=O)c3c(Nc4ccc(I)cc4F)n(C)c(=O)c(C)c32)c1	–	–	–	–	5.97, 2.02, 1.71, 2.53, 0.971 nM	–	–
COc1cc(Nc2ncc3c(n2)-c2ccc(Cl)cc2C(c2c(F)cccc2OC)=NC3)ccc1C(=O)O	–	50.9, 87, 70.4, 96.9, 109%	–	42.4, 62, 68.6, 75.5, 72.5%	< 31.6 nM, 6.08 µM, > 10 µM	56.1, 64.1, 63, 71, 85.9%	–
COc1cc2nc(C)nc(NC(C)c3cc(N)cc(C(F)(F)F)c3)c2cc1OC1CCOC1 (configuration not stated)	43.8, 20.7, 40.8 (2×), 51.3, 38.7, 33.6, 34.1, 33.4, 33.5, 34.2, 24.1, 37, 56.9, 36.2, 50.4, 49.3%	–	85.5, 58, 72.3, 38.7, 48.8, 43.6, 32.9, 34.9, 39.6, 40.7, 38.3, 29.7, 39.5, 63.2, 58.6, 50.7, 54.6%	59, 63.1, 58.9, 109, 55.5, 61.1, 38.2, 39.5, 39.8, 53.6, 56.1, 54.5, 46, 51.3, 60.2, 67.8, 65.9%	–	55.6, 41.4, 49.9, 46.1, 57.1, 46.9, 35.4, 44.2, 33.7, 54.5, 46.7, 43.6, 52.7, 70.1, 73, 60.7, 55.2%	viability, T/C (compound alone 10 µM): 47.5, 17.7, 67.1, 25.8, 15.4, 11.6 (2×), 11.3, 25, 13.4, 19, 19.2, 23.4, 36.5, 15.3, 44.8, 30.6%; IC50 (run of 07/12/2021): 6.36 µM, 1.15 µM, > 10 µM, 1.3 µM, 1.01 µM, 341 nM; IC50 (run of 07/26/2021): 153 nM, 143 nM, 4.82 µM, 1.62 µM, 2.12 µM, 2.09 µM
CNCc1ccccc1-c1csc(C(C)Nc2nc(C)nc3cc(OC)c(OC)cc23)c1 (configuration not stated)	37, 25.8, 0.85, 0.56, 0.45, 0.35, 0.11, 0.42, 0.2, 0.24, 0.18, 1.99, 1.52, 7.57, 1.71, 5.19, 10.3%	–	44.3, 49.6, 39.8, 43.9, 34.3, 31.8, 18, 23, 27, 20.3, 26.9, 25.6, 32, 53.1, 36.7, 39.9, 48.1%	51.7 (2×), 56.1, 57.1, 59.3, 61.8, 59.9, 50.5, 52.7, 63.3, 61.5, 67, 63.9, 69.5, 77.8, 72.4, 76.2%	–	40.1, 31.2, 43.5, 50.5, 51.9, 44.3, 28.9, 38.3, 35.4, 38.1, 44.8, 49.2, 40.3, 60.5, 61.4, 60.2, 56.3%	IC50 (run of 07/12/2021): 426 nM and < 100 nM, 326 nM, 424 nM, 285 nM [2021-07]; IC50 (run of 07/26/2021): 325 nM, 226 nM, 1.07 µM, 542 nM, 578 nM, 643 nM
